# The source gives no read counts; variants with many changes may rest on few reads.
# B1: LINE1-mini (parent)
# chain: GGCAGAGCUCAACACAGCGUGGCAAAGUGGCUGUGGCUAGACUGCC
# Variants of: B1
# Assay: self-cleavage, relative activity (ratio to wild type); higher = more cleavage; in vitro, sequencing; the parent is a self-cleaving ribozyme
row,Variant,self-cleavage
1,GGCAGAGCUCAACUCAGCGUGGCAAAGUGGCAGUGGCCAGACUGCC [A14U U32A U38C],0.02
2,GUAAGAGCUCAACACAGAGUGGCAAAGUGGCUGUGGCAAGACUGCC [G2U C3A C18A U38A],0.34
3,GGCUGAGCUCGAGACAGCGUGGCAAAGUGCCUGUGGCUAGACUGCC [A4U A11G C13G G30C],0.02
4,GGCGGCGCUCAACUCUGCGUGGCAAAGUGGCUGUGGCUAGACUGCC [A4G A6C A14U A16U],1.93
5,GUCAUAGCUCAACGCAGCGUGGCAAAGUGGCUGUGGCUAGACUGCC [G2U G5U A14G],0.01
6,GGCAGAGCUCAACAUAGCGUGGCAAAGUGGCCGUGGCUAGGCUGCC [C15U U32C A41G],0.02
7,GGAAGAGCUCAAAACAGCGUGGCAAAGUGGCUGUCGUUAGACUGCC [C3A C13A G35C C37U],0.1
8,GGCAGAGCUCAACAAAGCGUGGCAAAGCGGCUGUGGCUCGACUGCC [C15A U28C A39C],0.01
9,GGCAGAGCUAAACACGGCGUGGCAAAGUGGGUGUGGCUAGACUGCC [C10A A16G C31G],0.01
10,GGCAGAGCUCCACACAGCGUGGCAAAGUGACUGUGGCUAGACUGCU [A11C G30A C46U],0.03
11,GGCAGAGCUCAACACAGCGUGGCAAAGUGGGUGUGGCCAGCCUGCC [C31G U38C A41C],0.03
12,GGCAGAGCUCAACACAGCGUGGCAAAGUAGCUGUGGCUAGAAUGCG [G29A C42A C46G],0.03
13,GGCUGAGGUCAACACAGCGUUUCAAAGUGGCUGUGGCUAGUCUGCC [A4U C8G G21U G22U A41U],0.34
14,GGCAGUGCUCAACAGAGCGUGGCAAAGUGGCUGUGCCUUGACUGCC [A6U C15G G36C A39U],0.11
15,GGCAGAGCUCCACACAGCGUGGCAAAGUGGCUACGGCUAGACUGCC [A11C G33A U34C],0.01
16,GUCAGAGAUCAAAACAGUGUGGCAAAGUGGCAGUGGCUAGACUGCC [G2U C8A C13A C18U U32A],0.04
17,AGCAGUGCUGAACACAGCGUGGCAAAGUAGCUGUGGCUAGACUGCC [G1A A6U C10G G29A],0.17
18,GGCAGAGCUCAACGCAGCGUGGCAAAGUGACUGUGGCUAGACUACC [A14G G30A G44A],0.02
19,GGCAGAGCUCCACAUAGCGUGGCAAAGUGGCUGUGGCUAGACUGCA [A11C C15U C46A],0

row,Variant,self-cleavage
1,GGCAGAGCUCAACACAGCGUGGCAAAGAGGCUGUGGCCAGACUGUU [U28A U38C C45U C46U],0.02
2,GGCAGAGCUCAUCAGAGCGUUGCAAAAUGGCUGUGGCUAGACUGCC [A12U C15G G21U G27A],0.04
3,GGCACACCUCAACACAGCGUGGCAAAGGGGCUGUGGCUAAACUGCC [G5C G7C U28G G40A],0.04
4,CGCAGAGCUCAAUACAGCGUGGCAAAGGGGCUGUGGCUAGACUGCC [G1C C13U U28G],0
5,GGCAGAGCUCAACAGAGCGUGGCCAAGUGGCUGUGGCUACACUGCC [C15G A24C G40C],0.02
6,GGCAGAGCUCAACACAGCGUUGCAAAGUGGCUGUGGCUAGGCGGAC [G21U A41G U43G C45A],0.06
7,GGCAGAACUUAACACAGUGUGGCAAAGUGGCUGUCGCUAGACUGCC [G7A C10U C18U G35C],0.01
8,GCAAGAGCUCAACACAGCGUGACAAAUUGGCUGUGGCUAGACUGCC [G2C C3A G22A G27U],0.13
9,GGCAGAACUUAACACAGCGUGGCAAAGUGGAUGUGGCUAGACUGCC [G7A C10U C31A],0.01
10,GGCAGAGCUCAACCCAGCGUGGCAAAGUGUCUGUGGCUAGAUGGCC [A14C G30U C42U U43G],0.02
11,GGCAGAGUUCAACACAGUGUGGCAAAGUUGCUGUGGCUAGACUGCC [C8U C18U G29U],0.04
12,GACAGAGCUCAAGACAGCGUGGCAAAGUGGCUGUCGCUGGACUGCC [G2A C13G G35C A39G],0.03
13,GGCAGAGCGCAACACAGUGUGGCUAAGUGGCUGUGGCUAGACAGCC [U9G C18U A24U U43A],0
14,GUCAAUGCUCAACACAGCGUGGCAAAGUGCCUUUGACUAGACUGCC [G2U G5A A6U G30C G33U G36A],0.03
15,GGCCGAACUAAACACAGCGUGGCAAAGUGGCUGAGGCUAGACUGCC [A4C G7A C10A U34A],0.06
16,GGAAAAGCUCAACACAGCGUGGCAAAAUGGCUGUGGCUAGACUGCC [C3A G5A G27A],0.09
17,GGCAGUGCUCAACACAGCGUGGCAAUGUGGCUGUGGCUAGUCUUCC [A6U A26U A41U G44U],0.08
18,UGCAGAGCUCAACACAGCGUGGCAAAGUGGCUGUGGCUAGACGGCU [G1U U43G C46U],0.11
19,GGCAUAGCUCAACACAGGGUGGCAAAGUUGCUGUGGCUAGAAUGCC [G5U C18G G29U C42A],0.07

row,Variant,self-cleavage
1,UGCAGAGCUCAACACAGCGUGGUAAAGUGGCUGUCGCUAGUCUGCC [G1U C23U G35C A41U],0.09
2,GGCAGCACUCAACAGAGCGUGGCAAAGUGGCUGUGGAAAGACUGCC [A6C G7A C15G C37A U38A],0.03
3,GGCAGAGCCCAACCCAGCAUGGCAAAGUGGCUCUGGCAAGACCGCC [U9C A14C G19A G33C U38A U43C],0
4,GUCAAAGCUCAACACAGCGUGGCAAAGAAGCUGUGGCUAGACUGCC [G2U G5A U28A G29A],0.02
5,GGCAGAGCUAAGCACAGUGUGGCAAAGUGGCUGUGGCUAGACUGGC [C10A A12G C18U C45G],0.01
6,GGCAGAGCUCAACAAAGCCUCGCAAAGUGGCUUUGGCUAGACUGCC [C15A G19C G21C G33U],0.58
7,GGCAGAGCUCCACACAGCGUCGCAACGUGGCUGUGGCUAGACUGCU [A11C G21C A26C C46U],0.02
8,GGGAGAGCUCAACACAGCGUGUCAAAGUGGCUGUGGCUAGACUCCC [C3G G22U G44C],1.84
9,GGCAGAGCUCAUCACAGCGUGGCAAAGUGGCUGUGACUAGGCUGCC [A12U G36A A41G],0.01
10,GGCAGAGCUCAACACAGCUUGGCAAGGUGGCUCUGACUAGACUGCC [G19U A26G G33C G36A],0.09
11,GGCAGAGCACAACACAGCGUGGCAAAGUGGCUGGGACUAGACUGCC [U9A U34G G36A],0.52
12,AGCAGACCUCAACACAGCGUGUCAGAGUGGCUGUGGCUAGACUGCC [G1A G7C G22U A25G],0.17
13,GGCAGAGCACCACACAGCGUGGCAAAGUGGCUGUGGCUAUACUGCC [U9A A11C G40U],0.02
14,GGCUGAGCUCAACACAGCGUGGCAAAAUCGCUGUGGCUAGACUGCC [A4U G27A G29C],0.17
15,GGCCGGGCUCAACUCAGCGUGGCAAAGUGGCGGUGGCUAGACUGCC [A4C A6G A14U U32G],0.08
16,GGCAAAGCUAAACACAGCGUGGCAAAGUGGAUGUGGCUAGACUGCA [G5A C10A C31A C46A],0.02
17,GCCACUACUAAACACAGCUUGGCAACGUGGCUGUGGCUAGACUGGC [G2C G5C A6U G7A C10A G19U A26C C45G],0.04
18,GGCAGAGCUUAACAUAGCUCUGCAAAGUGGCUGUGGCUAGACUGCC [C10U C15U G19U U20C G21U],0.03

# — the RNAGym collection of RNA variant scans (doi:10.7554/elife.90254)
